Experimental data published in PubChem BioAssay AID488969 (Vanderbilt High Throughput Screening Facility, 2010).
Whole data set: some 110,000 compounds, median “z-score” near -0.1, cut for the highest 2% near 2. This is one part of the list.

Molecular target: Metabotropic glutamate receptor 8 (Rattus norvegicus) (UniProt P70579)
Assay: rat mGluR8 modulators via GIRK flux, primary screen, cell-based, thallium flux, HTS (AID 488969)
Conditions: HEK293 rat mGluR8, GIRK (G protein-gated inwardly rectifying potassium channel) thallium flux, FluoZin2; at 10 µM; stronger effect = higher value; submaximal glutamate (EC20) added with thallium

UniProt P70579, sequence (P70579 whole entry, looked up): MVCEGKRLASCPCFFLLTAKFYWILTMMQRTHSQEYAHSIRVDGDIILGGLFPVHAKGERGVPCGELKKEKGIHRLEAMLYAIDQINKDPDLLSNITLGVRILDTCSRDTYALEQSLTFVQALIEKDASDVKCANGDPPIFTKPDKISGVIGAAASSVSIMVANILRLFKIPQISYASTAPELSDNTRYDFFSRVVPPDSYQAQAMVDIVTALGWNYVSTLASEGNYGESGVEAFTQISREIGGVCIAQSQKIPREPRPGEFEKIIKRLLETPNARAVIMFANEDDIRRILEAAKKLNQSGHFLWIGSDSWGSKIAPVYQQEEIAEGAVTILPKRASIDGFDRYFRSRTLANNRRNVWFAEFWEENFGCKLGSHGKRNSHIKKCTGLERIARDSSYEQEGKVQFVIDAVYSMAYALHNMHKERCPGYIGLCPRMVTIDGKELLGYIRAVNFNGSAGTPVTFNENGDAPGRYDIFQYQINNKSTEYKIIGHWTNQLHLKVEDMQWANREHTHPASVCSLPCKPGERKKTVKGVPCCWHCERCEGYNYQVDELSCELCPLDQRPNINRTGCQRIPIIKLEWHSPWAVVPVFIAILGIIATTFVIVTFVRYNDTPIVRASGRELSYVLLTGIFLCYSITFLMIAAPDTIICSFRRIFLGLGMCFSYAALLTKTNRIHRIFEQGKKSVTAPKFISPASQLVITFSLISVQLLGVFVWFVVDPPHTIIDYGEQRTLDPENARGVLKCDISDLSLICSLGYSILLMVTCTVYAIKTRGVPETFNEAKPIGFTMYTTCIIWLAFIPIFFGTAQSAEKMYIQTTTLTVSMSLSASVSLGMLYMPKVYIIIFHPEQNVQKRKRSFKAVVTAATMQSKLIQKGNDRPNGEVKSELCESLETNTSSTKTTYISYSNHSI

SMILES | z-score
COc1ccc(-c2cc(-n3c(C(F)(F)F)nc4ccccc43)n(CCC#N)n2)cc1 | -0.215
CCN1C(=O)/C(=C/c2cc(C)n(C)c2C)SC1=Nc1ccc(OC)cc1 | 0.0957
O=C(CSc1nnc2ccccn12)NCCN1C(=O)CSC1=O | 0.57
CCOC(=O)c1c(NC(C)=O)sc2c(OC)cccc12 | -0.182
Fc1ccccc1CSc1nnnn1-c1ccc2c(c1)OCO2 | -0.141
COCCCNC(=O)CNC(=S)N(Cc1ccccc1F)C1CCCCC1 | 0.182
Cc1cc(Nc2cccc(F)c2)nc(NCc2ccccc2)n1 | 0.0224
CCOC(=O)C1CCN(C(=O)Cc2cccc3ccccc23)CC1 | 0.149
CC(=O)c1ccc(NC(=S)N2CCC(O)CC2)cc1 | -0.123
O=C1c2ccccc2S(=O)(=O)N1CCOc1ccccc1 | -0.253
COc1ccc(C(=O)/C=C/N(C)C)cc1OC | -0.0348
O=C(NC(c1ccccc1)c1ccccc1)c1ccc(Br)o1 | -0.00121
Cn1nnc2cc(C(=O)NCCC3=CCCCC3)ccc21 | -0.253
COc1cc(NC(=O)CN2CCC(C)CC2)c(C)cc1[N+](=O)[O-] | -0.408
CCCOc1nnnn1-c1ccccc1 | -0.0841
Cc1nc2ccc(NC(=S)NC3CC3)cc2nc1C | 0.116
Cc1ccc(NC(=O)CN(C)S(=O)(=O)c2cnc[nH]2)cc1C | 2.45
CC(=O)/C(C#N)=C1\NC(=O)C(Cc2ccc(C)c(C)c2)S1 (stereo not given) | -0.263
CCCCCc1c(C)nc(Nc2ccc(F)cc2)[nH]c1=O | 0.327
Cn1c(-c2ccc(Br)o2)nc2ccccc21 | -0.202
COCc1nnc(NC(=O)CS(=O)(=O)Cc2ccccc2)s1 | 0.253
CC(C)NC(=O)C(=O)NNC(=O)C12CC3CC(CC(C3)C1)C2 | 1.02
Cc1ccccc1NC(=O)c1ccc2c(c1)OCCO2 | 0.532
Cc1nnsc1SCCNC(=O)c1ccc(F)cc1 | -0.0218
Cc1csc(NC(=O)c2cc(-c3ccco3)nc3ccccc23)n1 | -0.115

SMILES | z-score
CC1CCCN(C(=O)C23CCC(C)(C(=O)C2)C3(C)C)C1 (stereo not given) | -0.587
Cc1cccc(NN=C2c3ccccc3-c3ccccc32)c1 | 0.327
Cc1ccn2cc(CNC(=O)c3cccs3)nc2c1 | -0.224
CCOC(=O)c1cnc(SC)nc1Sc1ccccc1 | 0.18
COc1cc(CNCc2ccccn2)ccc1OCC(N)=O | 0.0302
CC(C)(C(=O)c1ccccc1)/[N+]([O-])=C/c1ccccc1F | -0.172
CC(=O)Nc1ccc2[nH]c(C)c(CC=C(Cl)Cl)c(=O)c2c1 | -0.48
CC(C)(C)CC(=O)Nc1nnc(C(F)(F)F)s1 | -0.203
COc1ccccc1NC(=O)c1ccc(-c2ccc(Br)cc2)o1 | -0.099
COc1ccccc1N1CCN(C(c2ccccc2)c2nnnn2CCc2ccccc2)CC1 (stereo not given) | -0.391
O=c1c2ccccc2c(-c2ccc(Br)cc2)nn1Cc1ccccc1 | -9.07e-05
O=C(CSc1nc2ccccc2s1)NNC(=O)Nc1ccc(Cl)c(Cl)c1 | -0.0417
CC1CCCCN1C(=O)Cn1cc(C(=O)c2ccco2)c2ccccc21 (stereo not given) | -0.13
COC(=O)c1ccc(NC(=O)CCc2c(C)nc3ncnn3c2C)cc1 | -0.192
CCCN1C(=O)c2ccc(C(=O)NCc3ccco3)cc2C1=O | -0.102
COc1cc(/C=N/Nc2cc(C)nc(NS(=O)(=O)c3ccc(C)cc3)n2)ccc1O | -0.382
CCc1c(C)nc2cc(-c3cc(OC)cc(OC)c3)nn2c1N1CCN(CCN2CCOCC2)CC1 | 0.147
CC(C)CC(=O)Nc1nc2ccc(S(=O)(=O)N3CCOCC3)cc2s1 | -0.0017
COc1cc2c(cc1OC)-c1nnnn1C(C)(C)C2 | -0.0339
COc1ccc(CC(=O)N2CC3(C)CC2CC(C)(C)C3)cc1 (stereo not given) | -0.196
COc1ccc(CCNc2nc(=O)[nH]nc2C)cc1OC | 0.238
Cc1cc(N2CCC(C)CC2)nc2cccc(O)c12 | 0.156
Cn1c(CCNC(=O)c2cccs2)n[nH]c1=S | 0.112
Cn1c(NCc2cccnc2)nc2c1c(=O)n(Cc1ccccc1F)c(=O)n2C | 0.199
CN(C1CCCCC1)S(=O)(=O)c1ccc(NC(=S)NC(=O)c2cccs2)cc1 | 2.93

SMILES | z-score
COc1ccc(-c2nnc(SCC(=O)c3ccc4c(c3)OCCO4)o2)cc1 | -0.00352
CN(/C(=N\S(=O)(=O)c1ccccc1)C(F)(F)F)c1ccccc1 | -0.34
COc1ccc(Nc2ccc(N3C(=O)CCCC3=O)cc2[N+](=O)[O-])c(OC)c1 | -0.123
COc1ccccc1NC(=O)CSc1nccc(=O)[nH]1 | 0.206
CC(C)(C)c1ccc(C(=O)NC(=S)Nc2nc3c(s2)CCCC3)cc1 | 1.95
CCN(CC)c1ccc2c(c1)OC(N)=C(C#N)C2c1cccnc1 (stereo not given) | -1.34
CC(C)NC(=O)COc1ccc(S(=O)(=O)N2CCOCC2)cc1 | 0.359
Cc1ccsc1/C=C/c1ccc2ccccc2n1 | -0.206
Cc1ccc(NC(=O)N2CCC(c3nc4c(nnn4Cc4c(F)cccc4Cl)c(=O)[nH]3)CC2)cc1 | -0.8
O=C(CCNc1ccccc1)c1cccc([N+](=O)[O-])c1 | -0.134
CC(/C=N/Nc1nncc(=O)[nH]1)=C\c1ccccc1 | -0.244
Cc1ccccc1NS(=O)(=O)c1cc(C(=O)Nc2cccc([N+](=O)[O-])c2)ccc1C | -0.256
COC(=O)CN1C(=O)C(O)(CC(=O)c2ccc(Br)cc2)c2ccccc21 (stereo not given) | -0.209
Cc1cc(C)cc(NC(=S)NCCCN2CCOCC2)c1 | -0.183
COCCN1C=C(C(=O)OC)C(c2cc(Br)c(OC)c(OC)c2)C(C(=O)OC)=C1 | -0.0355
CNc1nc(OCC(F)(F)F)nc(N2CCOCC2)n1 | -0.112
Cc1ccc2cc3c(NC(=O)C4CCCO4)nn(CC(C)C)c3nc2c1 (stereo not given) | -0.308
CCC(C)NC(=O)CNC(=S)N(Cc1ccccc1)Cc1cccnc1 (stereo not given) | -0.198
Cc1cc(NC(=O)CSc2nnc(C3CC3)n2N)no1 | -0.949
COCCCNC(=O)Cn1cc(C(=O)c2cccs2)c2ccccc21 | -0.786
CC(C)NC(=O)c1ccc(COCC(F)(F)F)cc1 | -0.258
Cc1nnc(SCC(=O)Nc2ccccc2)[nH]c1=O | 0.599
CSC1=C(C#N)C(c2ccccc2Cl)C2=C(N1)c1ccccc1C2=O (stereo not given) | -0.988
CCOC(=O)C1(C(C)(C)CC)CC(CSc2nc3ccccc3[nH]2)OC1=O (stereo not given) | 0.329
Cn1nc(C(=O)Nc2ccc(S(=O)(=O)N3CCCC3)cc2)ccc1=O | 0.245
